# Assay results as given in PMC12136788.
# The other results are listed elsewhere or left out.
# T1: UNK ZnF1-3 (human, UniProt Q9C0B0 31-174)
# T1 sequence: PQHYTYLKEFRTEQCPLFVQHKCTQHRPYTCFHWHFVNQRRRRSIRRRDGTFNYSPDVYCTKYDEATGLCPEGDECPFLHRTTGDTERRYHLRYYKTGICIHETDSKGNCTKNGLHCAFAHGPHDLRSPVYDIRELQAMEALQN
# B1: chr7:56126341:56126342:+_ENSG00000146731_ENST00000540286|hu_mus|hu_hu_hu_mus_True|8_88 (ssRNA)
# RNA: GGGAGUUCUACAGUCCGACGAUCCAUGUUUCUCCUCUUGGCUCUGCGCAGAGCAACGAUCCCUUCUUUCGCAAGGGCAUCUAAGGAAAAGGGGUCAAUCCCCUUUUGAUUAAUAACGACAAAUCCUUUAUCUGAAUCACCACACAACAGAGGAUUGAGCAUCA
# B2: 32832734_32832854_808_3pUTR_ENSMUSG00000013663_ENSMUST00000013807|mouse|control|control (ssRNA)
# RNA: GGGAGUUCUACAGUCCGACGAUCAAAUGGCUCUGGACUUGGCGGUCGCUGAUGCCCCUCGCUCUGCUGCCGCUUGGCCCUGGACCGCAGCCGGGUAAUGGCUGCUGCGGCGGCUGCUGGAUGGUUGCAGAGACUGGGCCUGCUCAACAGAGGAUUGAGCAUCA
# B3: chr8:117878989:117878990:-_ENSG00000164754_ENST00000297338|hu_hu|hu_hu_hu_mus_True|18_108 (ssRNA)
# RNA: GGGAGUUCUACAGUCCGACGAUCCCAGAGGCCCUCUUUUACUGAGGACAAAAUGUGCGUAGAACAUUUUUCUUAUUUGCUAUGAAAUAAGAAGAAACCUGGAUCUCGGCGGGGAGCUUGGGCGGGCGGGUGGCCCGGGGAGGGCAACAGAGGAUUGAGCAUCA
# B4: chr16:37877144:37877145:+_ENSMUSG00000034158_ENSMUST00000078717|perfect_dup|FALSE|FALSE (ssRNA)
# RNA: GGGAGUUCUACAGUCCGACGAUCAUUUGCUAAUUCUGGUGGGAUUUCUUUAAUGAAGUUUCCUCCAAGGUAUAAACAUUCUAAACUCCGCAAGUUCUCGAUCUCGGCGGGGAUGCUCUGCAGCUGGUUGCCGCCCAGGCUGAGCAACAGAGGAUUGAGCAUCA
# B5: chr10:84155644:84155645:+_ENSMUSG00000034453_ENSMUST00000077175|mus_hu|motif|central (ssRNA)
# RNA: GGGAGUUCUACAGUCCGACGAUCACUAUAGCUCAUCACAGCAACUGUUGCAUUCUGUCCAGCUGGCAGUUUCUCAAAUUCGGUCAAUUCAAUGGUUUUUGUCUUAACCAUGGGUUUUUGUGGAUAUGCUAGUAGAUACAUGAGCAACAGAGGAUUGAGCAUCA
# B6: chr11:77336104:77336105:-_ENSG00000074201_ENST00000525064|hu_mus|hu_hu_hu_mus_False|1_68 (ssRNA)
# RNA: GGGAGUUCUACAGUCCGACGAUCCUCACACAUUGCUGUGAACAUCGCCUCCAAUGCUGACUUAUCACUAGGCACAAAUCGAAAUUCAGAAAUGGGUUCAACAUCAUCAUUGUCUUCCUCAUCUUCAUCAGAGAGAGCAGGUUCCAACAGAGGAUUGAGCAUCA
# B7: chr6:17615347:17615348:+_ENSMUSG00000015733_ENSMUST00000015877|mus_hu|FALSE|FALSE (ssRNA)
# RNA: GGGAGUUCUACAGUCCGACGAUCUCCGGUCAUGCAAUGUUCAUCUUAUGCAUUCUGCAUCUCUUUGCCAAUCUUGUAGCUAAGGAUCUUGUUCCAAUCAAUCUUAGUGCGUGUAACUGGCAACUGUCGACGUAAGGCUUUGAACAACAGAGGAUUGAGCAUCA
# B8: chr1:66462064:66462065:+_ENSMUSG00000015222_ENSMUST00000114013|mus_mus|motif|central (ssRNA)
# RNA: GGGAGUUCUACAGUCCGACGAUCGACCUCACCCUUCUCAUCCGUGGAUAAAUCAGCUUCGGAAACUGGAGGCGGGCAAGGGAUUUCGGCAGACAGCUUGAGGGCAACUUCAUCUUGGAUCAGUGAUGUCUCUGGAGAUGUUUCCAACAGAGGAUUGAGCAUCA
# B9: chr11:29608294:29608295:+_ENSMUSG00000020458_ENSMUST00000102843|mus_mus|FALSE|FALSE (ssRNA)
# RNA: GGGAGUUCUACAGUCCGACGAUCAAAUGUUUCACUUUCUUUCAUUUUGUCUUCCUUAGAAGAAAGUAAGUCAUCAUUGGAAUAAAUUGCAGUAUUAAACUCUUCCAUUUGCAAAGAAAUUGUCUCCUUUUUGGUCAAUGUUGGCAACAGAGGAUUGAGCAUCA
# B10: chr16:94690093:94690094:+_ENSMUSG00000040785_ENSMUST00000117648|mus_hu|mus_mus_mus_hu_True|48_68 (ssRNA)
# RNA: GGGAGUUCUACAGUCCGACGAUCGGGCUGGGAUGACGGACACACAGCCUCGAUUCCAGGGGGAAAAAAAAAUAGCCGAUACUAAUUUAAAAAGUAUAAUGAUUUUUGAAAAUCAGAUUACAUCUAUAAAAGAUGAAAAGCAAACAACAGAGGAUUGAGCAUCA
# B11: 2835912_2836032_2307_3pUTR_ENSG00000087266_ENST00000503393|human|control|control (ssRNA)
# RNA: GGGAGUUCUACAGUCCGACGAUCAGCCCCAGCCACCAAGGCAAAGCUCACUGCUGCUUUAUUGGAGGCAACAGCCCCUACUGGAGCCUGUGUCUUAGCGUUCCUGGGGGUCCCAGGGCCAGCCCCGGCCCCCACCCAGCUGCCCAACAGAGGAUUGAGCAUCA
# B12: 60832291_60832411_462_CDS_ENSMUSG00000072437_ENSMUST00000088237|mouse|control|control (ssRNA)
# RNA: GGGAGUUCUACAGUCCGACGAUCAUCGUCCUCGGGCGGCCCCAUCGUGGGCCCCGCCGCCGUGGGCCCGGGCCCCUCAUGCGGGGAGCCGCGGUCGCUAGCCCUGGUGAUGAGCGUGGCAAGCCCCAGGUAGUCGUUCCAGGACAACAGAGGAUUGAGCAUCA
# B13: chr6:40197388:40197389:+_ENSMUSG00000057716_ENSMUST00000061740|mus_mus|mus_mus_mus_hu_False|18_58 (ssRNA)
# RNA: GGGAGUUCUACAGUCCGACGAUCGAGACACUGGGGUGGAUUUAUUCCACCUCUGUUUGGGUGCUAGCCACUAAGACAGCUAUUUUGGGAUUCAUGGCCUUGAAUAUCAAGAGGGAAGGGACGAGAAUGGAAAGAGUCAAGAGUCAACAGAGGAUUGAGCAUCA
# B14: 66852511_66855443_578_CDS_ENSG00000159593_ENST00000290810|human|control|control (ssRNA)
# RNA: GGGAGUUCUACAGUCCGACGAUCUAAUGCAUUAUCUGGAUGAGAUUCUAUUACUGGAUGUUCUUUUAUAAUGAUCCUCAUAUAACCAACUAGUCCAUAUGUCCUACAGAUCAAAAGAGGAAUCUGGGAAUUCCAGAGGACAUCCAACAGAGGAUUGAGCAUCA
# Target: T1, UNK ZnF1-3
# Assay: nsRBNS (natural sequence RNA bind-n-seq); RBNS binding buffer (assumed for nsRBNS): 25 mM Tris pH 7.5, 150 mM KCl, 3 mM MgCl2, 0.01% Triton X-100, 500 ug/ml BSA, 20 U/ml SUPERase-In, 4 C; UNK is unkempt and MSI1 is Musashi-1; names of the RNAs are library labels; protein concentration not given here; high values mean tight binding
row,Binder,binding signal [enrichment R]
1,B1,1.17
2,B2,0.409
3,B3,1.13
4,B4,0.661
5,B5,0.898
6,B6,1.05
7,B7,0.63
8,B8,1.15
9,B9,0.549
10,B10,1.01
11,B11,1.42
12,B12,0.644
13,B13,1.36
14,B14,1.01
